# In PubChem BioAssay AID504332 (National Center for Advancing Translational Sciences (NCATS), 2011):
# Hit rate of the full screen: of about 350,000 compounds, about 31,000 (8.9%) were called active. The inconclusive results got no clear call from the source; some entries with a clear call stand among them for comparison. Calls follow the shape of the dose curve; as a rule, active = well fitted inhibition curve with a large enough effect; inconclusive = small, poorly fitted or top-dose-only effect; inactive = no such curve, though single readings can be large or run the other way. Potencies of inconclusive entries are doubtful fits and often do not repeat.
# Molecular target: Histone-lysine N-methyltransferase EHMT2 (Homo sapiens) (UniProt Q96KQ7)
# Sequence of UniProt Q96KQ7 (Q96KQ7 whole entry, looked up): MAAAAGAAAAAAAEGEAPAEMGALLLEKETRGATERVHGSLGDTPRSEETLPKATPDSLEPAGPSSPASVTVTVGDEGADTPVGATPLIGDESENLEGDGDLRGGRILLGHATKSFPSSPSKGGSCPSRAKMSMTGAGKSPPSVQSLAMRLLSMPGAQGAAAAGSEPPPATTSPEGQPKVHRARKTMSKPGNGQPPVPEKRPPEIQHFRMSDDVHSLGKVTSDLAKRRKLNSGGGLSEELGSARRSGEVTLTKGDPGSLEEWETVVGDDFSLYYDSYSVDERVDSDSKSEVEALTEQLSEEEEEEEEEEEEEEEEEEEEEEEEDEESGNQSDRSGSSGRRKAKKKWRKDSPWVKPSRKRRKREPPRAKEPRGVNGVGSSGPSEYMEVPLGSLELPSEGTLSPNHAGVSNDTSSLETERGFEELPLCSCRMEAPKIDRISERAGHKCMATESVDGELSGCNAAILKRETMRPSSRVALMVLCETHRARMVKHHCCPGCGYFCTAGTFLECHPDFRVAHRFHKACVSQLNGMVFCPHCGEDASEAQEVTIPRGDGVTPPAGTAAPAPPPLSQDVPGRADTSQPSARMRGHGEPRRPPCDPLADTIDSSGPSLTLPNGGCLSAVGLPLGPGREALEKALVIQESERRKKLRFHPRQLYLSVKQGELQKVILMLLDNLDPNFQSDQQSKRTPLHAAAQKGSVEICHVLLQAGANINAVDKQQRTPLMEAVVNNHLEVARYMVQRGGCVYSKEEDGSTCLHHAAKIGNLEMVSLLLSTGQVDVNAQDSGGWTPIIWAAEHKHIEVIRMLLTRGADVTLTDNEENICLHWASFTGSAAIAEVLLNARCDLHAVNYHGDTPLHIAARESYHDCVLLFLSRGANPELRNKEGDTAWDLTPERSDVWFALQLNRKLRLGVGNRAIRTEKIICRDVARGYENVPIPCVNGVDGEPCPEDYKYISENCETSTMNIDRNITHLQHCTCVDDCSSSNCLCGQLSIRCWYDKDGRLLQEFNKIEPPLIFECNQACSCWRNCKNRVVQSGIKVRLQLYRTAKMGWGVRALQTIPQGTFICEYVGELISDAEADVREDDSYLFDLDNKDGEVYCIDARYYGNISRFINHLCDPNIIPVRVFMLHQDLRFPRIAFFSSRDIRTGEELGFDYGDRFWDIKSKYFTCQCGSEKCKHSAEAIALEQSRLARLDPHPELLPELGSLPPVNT
# Assay: qHTS Assay for Inhibitors of Histone Lysine Methyltransferase G9a; also: nearly all actives have a fitted effect of over 75% in size
# Details: G9a H3K9 monomethylation, AlphaScreen, 2 h; activity, negative = inhibition: at 59 µM (top of the series) unless noted
# In short: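 Chemiluminescent proximity detection of H3K9 monomethylation, read after 10 min bead incubation in the dark. Reaction: 20 nM G9a, 500 nM biotin-H3K9 peptide, 20 uM SAM cofactor, 2 h, room temperature, following 15 min enzyme-compound preincubation.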
# % is scaled to controls: 0 for no effect and ±100 for the full control effect; potency is read from the fitted curve at half-maximal effect; tags tell the direction and shape of the fitted curve.
Compound,Potency,"activity, negative = inhibition"
O=C(NC(=S)Nc1nc2ccccc2s1)c1ccco1,"inconclusive: 89.1 µM [inhibitor, single point]",
NC(=O)C1CCN(c2nc(-c3ccccc3N)cs2)CC1,"inconclusive: 3.16 µM [inhibitor, single point]",
COC(=O)c1ccsc1NS(=O)(=O)c1ccccc1,inactive,
Cc1ccc(C(=O)Oc2ccc(/C=N/NC(N)=O)cc2)cc1,active: 28.2 µM,
Cc1cc(NC(=O)CC(CN(C)S(=O)(=O)c2ccccc2)c2ccccc2)no1 (centres undefined),"inconclusive: 50.1 µM [inhibitor, partial curve, poor fit]",
Oc1ccccc1N1CCN(C(=S)NCCc2ccccc2)CC1,"inconclusive: 44.7 µM [inhibitor, partial curve, poor fit]",
Cc1[nH]c2ccccc2c1/C=N/NC(=O)c1cccs1,"inconclusive: 56.2 µM [inhibitor, partial curve]",
S=c1[nH]nc(Cc2ccccc2)n1Cc1ccco1,,inconclusive: -135% [inhibitor]
CCOc1ccc(NC(=S)NNC(=O)c2ccc(Br)cc2)cc1,active: 35.5 µM,
CCOC(=O)N1CCN(C(=S)NC(=O)c2cc(Br)ccc2Cl)CC1,"inconclusive: 89.1 µM [inhibitor, partial curve, poor fit]",
COc1cccc2sc(Nc3nnc(-c4ccccc4Cl)o3)nc12,inactive,
CCCNS(=O)(=O)c1ccc(CCC(=O)N2CCN(c3ccc(OC)cc3)CC2)cc1,"inconclusive: 14.1 µM [inhibitor, partial curve, poor fit]",
CN(C)CCN1CCc2ccccc21,"inconclusive: 22.4 µM [inhibitor, single point]",
CCn1c(CNC(=O)COc2ccc(C(C)C)cc2)nnc1SCC(=O)Nc1ccc(F)cc1,,inactive: -0.0738% [at 12.7 µM]
Cc1ccc(C2NNC(=O)C2NC(=O)c2ccccc2)cc1 (centres undefined),active: 2.24 µM,
C/C(=N/NC(=O)CNC(=O)c1ccccn1)c1ccccc1,"inconclusive: 28.2 µM [inhibitor, single point]",
Cc1ccc2[nH]c3c(c2c1)CCCC3NCCO (centres undefined),active: 50.1 µM,
Cc1cc(C)n(CCN(C)C(=O)c2cc(COc3c(F)cccc3F)on2)n1,"inconclusive: 44.7 µM [inhibitor, partial curve, poor fit]",
O=C1OCCN1C(=O)[C@H]1[C@H](c2ccc([N+](=O)[O-])cc2)C(c2ccc(F)cc2)=NN1c1ccccc1,"inconclusive: 14.1 µM [inhibitor, partial curve]",
CC1=Nc2ccccc2N=C(NC(=O)/C=C/C(=O)O)C1c1ccccc1 (centres undefined),active: 11.2 µM,
c1ccc2cc3[nH]c(CN4CCOCC4)nc3cc2c1,"inconclusive: 28.2 µM [inhibitor, partial curve, poor fit]",
Cc1cc(NS(=O)(=O)c2ccc(-c3ccccc3)cc2)no1,"inconclusive: 89.1 µM [inhibitor, single point]",
Nc1c(Cl)cc(C2=NCCn3c2c2ccc(C(F)(F)F)cc2[n+]3[O-])cc1Cl,,inconclusive: -94% [inhibitor] [at 2.33 µM]
CN1C(=O)/C(=C/c2cc(N=Nc3ccccc3)ccc2O)SC1=S,active: 8.91 µM,
Cc1ccc(NC(=O)CN(C)CC(=O)Nc2ccc(N3CCOCC3)cc2)c(C)c1,"inconclusive: 31.6 µM [inhibitor, single point]",

Compound,Potency,"activity, negative = inhibition"
Cc1cc(/C=C2/SC(=O)N(CC(=O)N3CCCC3)C2=O)c(C)n1C,active: 50.1 µM,
CCOC(=O)Cc1csc(NC(=O)Cc2cccs2)n1,inactive,
CCc1n[nH]c(=S)n1/N=C/c1ccc(N(C)c2ccccc2)cc1,"inconclusive: 3.16 µM [inhibitor, full curve, poor fit]",
Cn1cnc(C(=O)N2CCN(C(=O)OC(C)(C)C)CC2)c1C(=O)N1CCN(C(=O)OC(C)(C)C)CC1,,inactive: 19.8% [at 2.33 µM]
Cc1nn(CCc2n[nH]c(=S)n2-c2ccc(F)c(Cl)c2)c(C)c1[N+](=O)[O-],"inconclusive: 10 µM [inhibitor, partial curve, poor fit]",
Nc1nc(C2C(=O)CCCC2=O)cs1,,inactive: -2.33% [at 12.7 µM]
Cc1ccc(S(=O)(=O)N2CCN(C(=O)CN3C(=O)c4ccc([N+](=O)[O-])cc4C3=O)CC2)c(C)c1,"inconclusive: 50.1 µM [inhibitor, partial curve, poor fit]",
COc1ccc(NC2=C(c3ccc(OC)cc3)C(=O)c3ccccc32)cc1,inactive,
CC(C)NC(=S)N1CCN(S(C)(=O)=O)CC1,inactive,
O=C(Nc1ccnn1C1CCN(Cc2ccc(OC(F)F)cc2)CC1)C1CCCC1,inactive,
c1ccc(C2Nc3cccc4cccc(c34)N2)cc1,active: 12.6 µM,
COc1ccc(Oc2ncc3nc(C)c(=O)n(-c4ccc(OC)cc4)c3n2)cc1,,inactive: -5.14% [at 12.7 µM]
CS(=O)(=O)N1CCN(C(=O)c2c(F)cccc2F)CC1,"inconclusive: 56.2 µM [inhibitor, partial curve, poor fit]",
O=C(c1cc(-c2ccccc2Cl)nc2ccccc12)N1CCC1,inactive,
CCc1ccccc1NC(=O)c1cc(-c2cccc(O)c2)on1,"inconclusive: 89.1 µM [inhibitor, single point]",
CCN(CC)C(=O)CSc1nnc2[nH]c(=O)cc(C)n12,inactive,
Cc1cc(C)c(Nc2cc(S(=O)(=O)O)c(N)c3c2C(=O)c2ccccc2C3=O)c(C)c1,active: 2.82 µM,
O=C(Nc1ccc(S(=O)(=O)N2CCCCC2)cc1)c1cccnc1Cl,"inconclusive: 89.1 µM [inhibitor, partial curve]",
Cc1cccc(NC(=O)c2ccc(OC3CSC3)cc2)c1,"inconclusive: 3.98 µM [inhibitor, single point]",
Cc1nc(CN2CCN(C(=O)c3ccc(C(C)(C)C)cc3)CC2)cs1,"inconclusive: 8.91 µM [inhibitor, partial curve, poor fit]",
Cc1cc(Cl)ccc1NC(=O)CSc1nnc(Cc2cccs2)n1Cc1ccco1,,inconclusive: -82.5% [inhibitor]
CCOC(=O)N1CCc2c(sc(NCc3cccs3)c2C(=O)Nc2cc(OC)ccc2OC)C1,active: 1.58 µM,
COc1ccc(C(=O)C2CCCN(Cc3cccn3-c3cccnc3)C2)cc1OC (centres undefined),inactive,
CCOc1ccc2nc(N3CCCC(C(=O)NCc4ccc(OC)cc4)C3)sc2c1 (centres undefined),inactive,
CC(C)Cc1ccc(S(=O)(=O)Nc2ccccn2)cc1,inactive,

Compound,Potency,"activity, negative = inhibition"
CC1c2cc3c(cc2CCN1S(=O)(=O)c1ccccc1)OCCCO3 (centres undefined),inactive,
CC[n+]1c(/C=C(\C)Nc2ccccc2)sc2ccccc21,"inconclusive: 39.8 µM [inhibitor, single point]",
CC/C(=N\NS(C)(=O)=O)c1ccccc1,"inconclusive: 3.16 µM [inhibitor, single point]",
Cc1ccccc1OCCNC(=O)c1ccco1,,inactive: -3.16% [at 12.7 µM]
CSc1ncc(C(=O)Nc2ccc(Br)cn2)c(C)n1,"inconclusive: 79.4 µM [inhibitor, single point]",
CCc1nnc(NS(=O)(=O)c2ccc(NC(=S)NC(=O)/C=C/c3ccc([N+](=O)[O-])cc3)cc2)s1,active: 35.5 µM,
CCOC(=O)N1CCN(C2CC(=O)N(c3ccccc3)C2=O)CC1 (centres undefined),"inconclusive: 89.1 µM [inhibitor, single point]",
O=C(O)CSc1nnc(-c2ccc(Cl)cc2Cl)n1-c1ccc(Br)cc1,"inconclusive: 56.2 µM [inhibitor, single point]",
O=C1COc2ccc(C(=O)CSc3nnc(-c4cccs4)n3Cc3ccccc3)cc2N1,"inconclusive: 39.8 µM [inhibitor, single point]",
O=C(C1CCN(C2CCN(C/C=C/c3ccccc3)CC2)CC1)N1CCOCC1,inactive,
Cc1ccc(S(=O)(=O)c2nc(-c3ccccc3)oc2N2CCCCCC2)cc1,"inconclusive: 8.91 µM [inhibitor, partial curve, poor fit]",
CCN(CC)CCNS(=O)(=O)c1ccc(/C=C/C(=O)O)cc1,active: 39.8 µM,
O=C(c1ccc(CN2CCOCC2)cc1)N1CCN(Cc2ccccc2)CC1,"inconclusive: 70.8 µM [inhibitor, partial curve, poor fit]",
Cc1onc(-c2ccccc2)c1C(=O)Nc1ccccc1C#N,inactive,
CCn1cc(C(=O)N(C)c2cc(C)ccc2OC)c2cc(OC)c(OC)cc2c1=O,inactive,
CN1CCN(S(=O)(=O)c2cccc(C(=O)N(C)Cc3c(F)cccc3Cl)c2)CC1,"inconclusive: 4.47 µM [inhibitor, single point]",
COc1ccc(N2CCC(CNC(=O)Nc3ccc(Cl)cc3)C2)cc1 (centres undefined),active: 0.708 µM,
COc1ccc2[nH]c3c(=S)nc[nH]c3c2c1,active: 3.55 µM,
Cc1[nH]ccc(=O)c1Cc1c(Cl)cccc1Cl,inactive,
COc1ccc(-c2nc(C#N)c(NCCCn3ccnc3)o2)cc1OC,,inactive: 33.9% [at 12.7 µM]
CC1CC(C)CN(CC(=O)NNC(=O)COc2ccc(Cl)cc2)C1 (centres undefined),"inconclusive: 3.55 µM [inhibitor, single point]",
Cn1cnnc1SCC(=O)c1ccc(OC(F)F)cc1,"inconclusive: 31.6 µM [inhibitor, single point]",
Cc1ccccc1CSc1nc(-c2ccccc2)nc2c1Cc1c(CO)cnc(C)c1O2,inactive,
N/C(Cn1cncn1)=N\NC(=O)C(=O)Nc1ccccc1,"inconclusive: 1 µM [inhibitor, full curve, poor fit]",
